# “And” between values parts separate entries of the source, which are not always exact repeats. Equal values may be shown once. In all, about 110,000 compounds went through this assay and about 230 (0.21%) showed an effect of 50% or more. Some of the results follow.
# Molecular target: DPAP1 (Plasmodium falciparum, UniProt Q8IIJ9)
# Assay: primary screen, percent inhibition; read by cleavage of a fluorogenic dipeptide substrate; higher = more effect of the substance
# Design: species or system P. falciparum D10 trophozoite lysates; single well
# 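Further: 30 min substrate incubation versus DMSO and 10 µM JCP410 controls.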
# Sequence of DPAP1 (Q8IIJ9 whole entry, looked up): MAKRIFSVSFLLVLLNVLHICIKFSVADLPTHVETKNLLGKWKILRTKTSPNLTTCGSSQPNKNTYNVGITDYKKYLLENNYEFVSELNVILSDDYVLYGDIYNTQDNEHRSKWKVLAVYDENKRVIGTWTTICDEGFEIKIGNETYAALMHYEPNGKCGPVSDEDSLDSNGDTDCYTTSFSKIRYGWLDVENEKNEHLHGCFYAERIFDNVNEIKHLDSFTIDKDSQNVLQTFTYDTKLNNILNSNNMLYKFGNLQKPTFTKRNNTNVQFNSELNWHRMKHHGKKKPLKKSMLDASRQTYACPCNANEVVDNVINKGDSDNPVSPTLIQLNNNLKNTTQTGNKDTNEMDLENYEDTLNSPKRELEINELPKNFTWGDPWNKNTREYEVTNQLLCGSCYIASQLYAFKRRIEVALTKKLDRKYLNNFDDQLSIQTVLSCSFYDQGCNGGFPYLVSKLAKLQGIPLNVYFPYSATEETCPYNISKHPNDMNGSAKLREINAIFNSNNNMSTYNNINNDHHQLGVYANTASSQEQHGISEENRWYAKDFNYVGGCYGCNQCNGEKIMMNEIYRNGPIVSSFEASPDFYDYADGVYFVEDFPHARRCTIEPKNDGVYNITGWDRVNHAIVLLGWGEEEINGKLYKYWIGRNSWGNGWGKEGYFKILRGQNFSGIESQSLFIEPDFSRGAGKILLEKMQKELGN
row,Structure (SMILES),% Inhibition @ 10 uM
1,COc1ccccc1Cn1ccn(CC(=O)c2ccc(F)cc2)c(=O)c1=O,-3.8%
2,CCCCN(CC)c1cnn(-c2ccccc2)c(=O)c1N,0.215% and -2.54%
3,O=C(O)/C=C/C(=O)Nc1cccnc1,-0.127%
4,N#Cc1c(NC(=O)CSc2n[nH]c(-c3ccncc3)n2)sc2c1CCCC2,0.9%
5,COc1cc(C2C(C#N)=C(N)Oc3[nH]nc(-c4ccccc4)c32)cc2c1OCO2 (stereo not drawn),-2.77%
6,O=C(N/C(=C/c1cccc2ccccc12)C(=O)N1CCCCC1)c1ccccc1,0.687%
7,Cc1[nH]c2ccc(C(=O)O)cc2c1CCN,-4.24%
8,NC1=NC(=O)/C(=C/c2ccc(-c3cccc(Cl)c3)o2)S1,6.24%
9,CCC(=O)c1cn(CC(=O)N2CCc3ccccc3C2)c2ccccc12,-6.94%
10,Cc1ccccc1Cc1c(C)nc2nc(SCC(=O)N3CCC4(CC3)OCCO4)nn2c1C,5.4%
11,Cc1ccc2nc(N(CCCN(C)C)C(=O)c3nc4ccccc4s3)sc2c1,6.08%
12,CCOC(=O)c1ccc(-c2ccc(/C=C3\C(=N)N4N=C(S(C)(=O)=O)SC4=NC3=O)o2)cc1,-7.21%
13,CCOC(=O)c1c(N2CCOCC2)cc(C)nc1C,-2.42%
14,CN1C(=O)c2ccc(NC(=O)COc3ccc(Br)cc3)cc2C1=O,1.19%
15,CCS(=O)(=O)c1nc(S(=O)(=O)c2ccc(C)cc2)c(NCCCN2CCCC2=O)s1,-4.04%
16,O=S(=O)(NC1CCCCC1NC1CCCCC1)c1ccccc1 (stereo not drawn),-0.551%
17,Cc1cccc(NC(=O)c2sc3nc4c(cc3c2N)CCC4)c1C,2.65%
18,CN1CCN(Cc2ccc(Cl)cc2)CC1,-5.57%
19,Cc1nc2ccc(S(=O)(=O)NCC(=O)NCc3ccccn3)cc2s1,-2.45%
20,O=C(CCn1c(=O)c2sccc2n(CC(=O)NCCC2=CCCCC2)c1=O)NCc1ccccc1,-1.84%
21,COc1ccc(S(=O)(=O)N2CC(C)N(S(=O)(=O)c3ccc(OC)cc3)CC2C)cc1 (stereo not drawn),2.42%
22,COc1ccccc1OC(CCN1CCN(C)CC1)c1ccccc1 (stereo not drawn),-2.29%
23,O=c1sc2ccccc2n1Cc1cccc2ccccc12,-3.04%
24,CN1CCCC1CCNC1CCC(c2ccccc2)CC1 (stereo not drawn),-6.82%
25,c1ccc(OCCCCCCN2CCNCC2)cc1,7.67%
26,Cc1nnc(SCC(=O)NCc2ccccn2)c2nn(-c3ccccc3)c(C)c12,1.4%

row,Structure (SMILES),% Inhibition @ 10 uM
1,Cc1cc(C)c(S(=O)(=O)Nc2ccc(C)c(Cl)c2)c(C)c1,-3.04%
2,c1nc(NCc2ccc3c(c2)OCO3)c2nc3n(c2n1)CCCCC3,-3.77%
3,CCCCNC(=O)CS(=O)Cc1nc(-c2cccs2)oc1C (stereo not drawn),1.55%
4,COCCC/N=C/C1=C(O)CC(C)(C)CC1=O,5.91%
5,N#Cc1c(/N=C/C2C(=O)c3ccccc3C2=O)sc2c1CCCC2,6.82%
6,CCc1ccc(C2NC(=O)c3[nH]nc(-c4cccs4)c32)cc1 (stereo not drawn),-1.54%
7,O=C1C2=C(SCCS2)C(=O)N1c1ccccc1,0.0792%
8,Fc1cccc(CN2CCN(c3ncccn3)CC2)c1,-5.57%
9,COc1cc2c(cc1OC)C(c1ccccc1)N(C(=O)CSc1nc3ccccc3o1)CC2 (stereo not drawn),7.02%
10,CCOC(=O)C1=C(C)OC(N)=C(C#N)C1c1cnn(C)c1 (stereo not drawn),1.76%
11,O=C(CSc1nnc(COc2ccccc2)n1-c1ccccc1)NC1CCCCC1,3.81%
12,N#CCNC(=O)[C@H](CC1CCCCC1)OC(=O)N1CC[C@@H](O)C1,-0.207%
13,O=C(O)c1cc(-c2ccccc2)nc2c1C(=O)C(O)=CC2=O,-1.42%
14,CCOc1ccc(CCNC(=O)CCCn2c3ccccc3c3cnnc(O)c32)cc1OCC,13%
15,O=C1NC(=O)/C(=C/c2ccc(OCc3cccc4ccccc34)c(Br)c2)N1,3.49%
16,Cc1ccccc1C(=O)Nc1nnc(S(=O)(=O)N2CCCCC2)s1,-9.28%
17,CCOC(=O)c1ccc2[nH]c3c(c2c1)CCCC3=O,0.815%
18,CCCn1c(C23CC4CC(CC(C4)C2)C3)cn2c3c(=O)n(C)c(=O)n(C)c3nc12,4.96%
19,CCn1c(Cn2nnc(-c3ccc(C)cc3)n2)nnc1SCC(=O)O,5.45%
20,CCCCSc1nc2c(cc1C#N)CCC2,0.317%
21,CCCCCCSc1nc2n(n1)C(c1cccc(OC)c1OC)C1=C(O)CCCC1=N2 (stereo not drawn),5.7%
22,Cc1cc(NC(=O)c2cc3c(s2)-c2c(C)cccc2OC3)no1,-1.37%
23,CCC(C)NS(=O)(=O)c1ccc(-c2cc(C(F)(F)F)no2)s1 (stereo not drawn),-5.31%
24,COc1cccc(CN2CC=C(c3ccc(F)cc3)CC2)c1,3.15%
25,Cc1ccc(C(=O)N/C(=C\c2cccs2)C(=O)N2CCN(Cc3ccccc3)CC2)cc1C,4.09%
